Laboratory results published in PubChem BioAssay AID1508623 (National Center for Advancing Translational Sciences (NCATS), 2021).
The whole screen tested about 48,000 compounds, of which about 450 (0.94%) were called active. About 19% were inconclusive and are not listed. Calls follow the shape of the dose curve; as a rule, active = well fitted inhibition curve with a large enough effect; inconclusive = small, poorly fitted or top-dose-only effect; inactive = no such curve, though single readings can be large or run the other way. Some of the results follow.

Test: Primary qHTS for Identification of Small Molecule Inhibitors of Huntingtin Promoter Activity; also: nearly all actives have a fitted effect of over 50% in size
Conditions: HEK293 HTT promoter firefly luciferase reporter (activity 0% = vehicle and -100% = no light), 24 h; series mostly up to 57.5 µM; activity change, negative = inhibition: at the top concentration
How it was run: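 Firefly luciferase readout (Dual-Glo, 10 min RT) after 24 h, 37 °C compound exposure (final up to 57.5 uM) of HEK293 reporter cells cultured 24 h beforehand; PTC124 at 50 uM final as control inhibitor; activity scaled vehicle 0%, zero RLU -100%.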

Activity change, negative = inhibition, inactive:
CCCC1N=C2c3ccccc3N=C(SCC(=O)NCCc3ccc(Cl)cc3)N2C1=O (stereo unspecified) -3.04%, CCOC(=O)c1ccccc1NC(=O)c1cc2ccc3cccnc3c2[nH]1 10.9%, CCCOC(=O)CSc1nnc(-c2ccccc2)o1 -7.34%, CC(C)NC(=O)c1ccc2c(c1)nc1n2CCCCC1 71.4%, CCOC(=O)COc1ccc(C)cc1C(=O)c1ccn2nc(-c3ccc(Cl)cc3)cc2n1 -12%, Cc1ccc(Nc2nc3ccc(C(=O)c4ccccc4)cc3n3c(C)nnc23)c(C)c1 13.8%, Cc1sc2ncn(CC(=O)N(C)c3ccc(C(C)C)cc3)c(=O)c2c1S(=O)(=O)N1CCC(C)CC1 -20%, COc1ccc(-c2noc(CC(=O)Nc3cc(OC)ccc3OC)n2)cc1 -25%, CC1CCC(NC(=O)C2(C)Cc3ccccc3C(=O)N2Cc2ccc(Cl)cc2)CC1 (stereo unspecified) -28.1%, CCCn1c(=O)c2sccc2n2c(CCCC(=O)N3CCN(c4cccc(Cl)c4)CC3)nnc12 -12.4%, CC(=O)c1cccc(NC(=O)CN2C(=O)CC(c3ccc(C)cc3C)=Nc3ccccc32)c1 -11.2%, O=C(/C=C/c1ccc(Cl)cc1)N1CCC(c2nc3ccccc3o2)CC1 25.6%, CCCCN(CC)CCCNC(=O)c1cn(CC)c2ccc(S(=O)(=O)N3CCc4ccccc4C3)cc2c1=O -8.83%, CCc1cc2c(cc3c(=O)n(CC(=O)N4CCN(c5cccc(C)c5C)CC4)nc(CC)n32)s1 -9.06%, COc1ccc(CCNCc2c(C(=O)O)c(C)n(Cc3cccc(Cl)c3)c2C)c(OC)c1OC -11.1%, O=C(Cn1cc(C(=O)c2ccccc2)c(=O)c2cc3c(cc21)OCCO3)Nc1ccc(F)c(F)c1 -34.4%, COc1ccc(CCNC(=O)c2cc3c(=O)n(C)c4ccccc4c3s2)cc1OC -16%, O=C(Cn1cc(S(=O)(=O)Cc2ccccc2Cl)c2ccccc21)NCCc1ccccc1 -14.8%, CCOc1ccccc1CNS(=O)(=O)c1cc2c(cc1C)NC(=O)CO2 -1.82%, CCn1nnc2cc(C(=O)Nc3cc(C)ccc3C)ccc21 -11.9%, O=C(NCc1ccc(F)cc1)C(=O)Nc1ccc2nc3n(c(=O)c2c1)CCCCC3 0.384%, COc1ccc(NC(=O)CCNS(=O)(=O)c2ccc3c(c2)CCCC(=O)N3)cc1 -1.53%, Cc1ccc(-c2cc3ncc4c(n3n2)-c2cc(Cl)ccc2OC4)cc1 -11.7%, CCOc1ccc(CC(=O)NCc2ccc3c(c2)CCN3C(=O)c2ccccc2)cc1OCC -17.9%, Cc1cc(C)c(NC(=O)c2oc3c(c2C)-c2[nH]ncc2CC3)c(C)c1 -5.28%, COc1ccc(Cl)cc1NC(=O)CSc1nc2c(oc3ccccc32)c(=O)n1Cc1ccco1 -9.7%
